# From the RNAGym collection of RNA variant scans (doi:10.7554/elife.90254)
# Read counts are not given, so values of variants with three or more changes are uncertain.
# B1: OR4K15 (parent)
# chain: GUUAACGGUCAUAGGCCAUGGAAACUAGGAGCACCAUUUCGCUGCCAGUGAAGAAAUGAACAAAGAAAAUCUGGGCCAGGCAGGCAUCAAAAGAAAUAGUCUUGCGCUCAACCAGAAAGUCUGUAAUCAUUUUAAGGGUA
# Variants of: B1
# Test: self-cleavage, relative activity (ratio to wild type); higher = more cleavage; in vitro, sequencing; the parent is a self-cleaving ribozyme
row,Variant,self-cleavage
1,A47G G75U U139C,0.12
2,U43G A54G U57A G74U A96G A135G,0.16
3,A47U A66G U70C A90G,0.39
4,U43C A66U U139A,2.09
5,U49C A60G U72C A90U G93A,0.21
6,U49A U57C A86G U132C,0.97
7,A47U A51U A69C A78G A129G,0.08
8,U49C A89U A90G A92G,1.15
9,U43C G106A A126U U132C,0.01
10,U49C A54G C113U,0.07
11,G48U A90G U102C A110G,0.13
12,A47G U120C A135U,0.78
13,U43C A92G U102C,1.35
14,A47G A117G U120C,0.24
15,U49C A89G A116U,0.43
16,U43C U57A A86G A117G,1.12
17,C46U A47U A90G U130C,0.6
18,G44A U87C U97C U100G U131C,0.79
19,U49A A96G U108C,0.01
20,A47G A54U A92G A111U,0.07
21,U49A A52U A92G A94G,1.58

row,Variant,self-cleavage
1,U43C A64G A94G U100C,1.73
2,G48C A51G A90G U122C A126G U131A,0.13
3,U49A A95G A134G,2.61
4,U49C A117G U122A U132C,1.23
5,U43C U132C A140U,1.02
6,A47G G106A U131C,0
7,U49C A125U A126G,0.81
8,A47G A64U C113U U124G,0.08
9,G44A U108C U122C,0
10,A47U A89U U132C,1.22
11,U49C A82G U100C,1.71
12,A47C A82U U132C,0.18
13,U43G U103C A129G,1.46
14,U49C A59U U72A C101U A110G,0.01
15,A47U A86G U87C U102A,0.34
16,U49C A51U A69G A78U A95C,0.13
17,U43C A66G C112U,0.02
18,U49C A94G A118G,0.8
19,C45U A62G U87A,1.36
20,U43C C46U U122C,0.68
21,U49A G84U A111G,0.03

row,Variant,self-cleavage
1,U43C A96G A117G U122C G137U,0.96
2,U43C A78G G79C A94G A111G U139C,0.03
3,A47G U57C U102A U131C,0.7
4,A47G A86G C101U,0.05
5,A47G A51G A60G,1.03
6,U43C U49C U122A,1.33
7,U49C A69U A86G A111U A129G,0.06
8,A47G U108C A110G A117G,0
9,A47U G74U A94G U100C,0.23
10,A47G U87C A91U U120C,0.49
11,A47C U87C U132C,1.28
12,U49A A110G A111G,0.02
13,U43C U72A A78G A94G,0.25
14,C46U U72A A92G A117G,0.04
15,U43C U49C A56G A60G A95G A117G A129G U131A,0.43
16,U43C U57A A67G,1.74
17,A47U A54G A66U A98G,0.05
18,U43C U103A U132C,0.79
19,U43C A62G U130C,1.25
20,U43C A67U A116G,0.39
21,A47G A52G A66G,1.35

row,Variant,self-cleavage
1,A47U A55G A67G G138U,0.87
2,G44A A55G A90G U102C,2.72
3,A47G U72C A90G A94G,0.09
4,A47U U49C A67G A69G A94G,0.72
5,C45A U87C A111G A125U A140G,0.01
6,U49A U87A A98G U108C A118U,0
7,U49C U57C A69G A96G,0.74
8,A47G A69G A92G,0.65
9,U49C A69G U87C,0.6
10,U49C U70C A89G,0.73
11,U43C A86G U102G U122C,0.18
12,A47G A62G U103C U120C G137U,0.21
13,U49C G73A A90U A94G A118G,0.05
14,U49A G74A A98G,0.07
15,U49C A78U A91G,0.07
16,U49C A52G A66U U72C A86G,0.1
17,U43C A129U U132A,1.09
18,U49C A90G U132A,1.28
19,U43C A67G A89G A92G U122A,0.31
20,U43C A129G U132C,1.08
